# Assay results from the supplement of paper PMC9135407.
# “And” between values parts separate entries of the source, which are not always exact repeats. Equal entries are not always repeated. Structures can show the parent of a compound that is named as a salt. Hit rate of the full screen: of about 5,800 compounds, about 620 (11%) showed activity.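 How the source made its calls: active = score above a cut-off or among the top three wells of a plate; in these data no inactive exceeds 0.85.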 The list shows a part of the results, in another mix than the full data.
# Test system: primary human hepatic stellate cells (donor 1)
# Assay: scaled lipid accumulation score (0 = DMSO-like, 1 = nortriptyline-like); higher = stronger HSC inactivation (lipid re-accumulation), active = hit call of the paper
# Conditions: 48 h
# [1] = library stock concentration: 3.33 mM
# [2] = library stock concentration: 10 mM
# [3] = library stock concentration: 1 mM
# [4] = library stock concentration: 80 uM
# [5] = library stock concentration: 400 uM
# [6] = library stock concentration: 2 mM
smiles,measurement,setting,value
COC(=O)C1=C(C#N)NC(C)=C(C(=O)OC(C)C)C1c1cccc([N+](=O)[O-])c1 (configuration not stated) [Nilvadipine],scaled lipid accumulation score,[1],inactive: ≤ 0
same,scaled lipid accumulation score,[2],inactive: ≤ 0
"CN(C)C(N)=NCCC[C@H](N)C(=O)O [N^G,N^G-Dimethylarginine hydrochloride]",scaled lipid accumulation score,[2],inactive: ≤ -0.07
CCCCCCCCCCCCCCCCOCC(COP(=O)(O)OCC[N+](C)(C)C)OCC (configuration not stated) [2-O-ethyl PAF C-16],scaled lipid accumulation score,[3],inactive: ≤ 0
"CCCCC[C@H](O)CC[C@H]1[C@H](O)CC(=O)[C@@H]1CCCCCCC(=O)O [13,14-Dihydro-PGE1]",scaled lipid accumulation score,[3],inactive: ≤ -0.021
C[C@@H](CN1CCC(Cc2ccccc2)CC1)[C@@H](O)c1ccc(O)cc1 [Ro 25-6981 maleate],scaled lipid accumulation score,[2],inactive: 0.284
C[C@@H](CN1CCC(Cc2ccccc2)CC1)[C@@H](O)c1ccc(O)cc1 [Ro 25-6981 hydrochloride],scaled lipid accumulation score,[2],inactive: ≤ 0
CC1CC(OC(=O)c2ccccc2O)CC(C)(C)C1 (configuration not stated) [Homosalate],scaled lipid accumulation score,,inactive: ≤ 0
same,scaled lipid accumulation score,library stock concentration: 7.6 mM,inactive: ≤ 0
CNc1nc(Nc2cn(C(C)(C)C#N)nc2C)ncc1C(F)(F)F,scaled lipid accumulation score,[1],inactive: ≤ -0.009
same,scaled lipid accumulation score,[2],inactive: 0.132
C[C@H](CCC(=O)O)[C@H]1CC[C@H]2[C@@H]3[C@@H](O)C[C@@H]4C[C@H](O)CC[C@]4(C)[C@H]3CC[C@]12C [Ursodiol],scaled lipid accumulation score,[1],inactive: ≤ 0
same,scaled lipid accumulation score,library stock concentration: 5.1 mM,inactive: ≤ 0
same,scaled lipid accumulation score,[2],inactive: ≤ 0
C[C@H](CCC(=O)O)[C@H]1CC[C@H]2[C@@H]3[C@@H](O)C[C@@H]4C[C@H](O)CC[C@]4(C)[C@H]3CC[C@]12C [Urosiol],scaled lipid accumulation score,,inactive: ≤ 0
C#C[C@]1(O)CC[C@H]2[C@@H]3CCC4=CCCC[C@@H]4[C@H]3CC[C@@]21C [Lynestrenol],scaled lipid accumulation score,,inactive: ≤ 0
O=C(Nc1ccncc1)c1cc([N+](=O)[O-])ccc1Cl,scaled lipid accumulation score,[3],inactive: ≤ 0
same,scaled lipid accumulation score,[1],inactive: 0.029
same,scaled lipid accumulation score,[2],inactive: ≤ 0 and inactive: 0.707 and inactive: 0.367
O=C(CCCN1CCN(c2ccccn2)CC1)c1ccc(F)cc1 [Azaperone],scaled lipid accumulation score,,inactive: ≤ 0
same,scaled lipid accumulation score,[1],inactive: ≤ 0
same,scaled lipid accumulation score,library stock concentration: 6.1 mM,inactive: 0.044 and inactive: ≤ 0
same,scaled lipid accumulation score,[2],inactive: 0.095 and inactive: ≤ -0.027
CCCCCCNC(=O)Nc1ccc(S(=O)(=O)Nc2ccc(CCNC[C@H](O)COc3ccc(O)cc3)cc2)cc1,scaled lipid accumulation score,[2],inactive: 0.462
O=C1OC[C@H](Cc2cccc(O)c2)[C@H]1Cc1cccc(O)c1,scaled lipid accumulation score,[3],inactive: ≤ 0
C[C@]12CC[C@@H]3c4ccc(OC(=O)c5ccccc5)cc4CC[C@H]3[C@@H]1CC[C@@H]2O [Estradiol benzoate],scaled lipid accumulation score,library stock concentration: 5.3 mM,inactive: ≤ 0
C[C@]12CC[C@@H]3c4ccc(OC(=O)c5ccccc5)cc4CC[C@H]3[C@@H]1CC[C@@H]2O [Estradiol Benzoate],scaled lipid accumulation score,[1],inactive: ≤ 0
same,scaled lipid accumulation score,[2],inactive: 0.155
CC(C)(C)[N+]([O-])=Cc1ccc(S(=O)(=O)O)cc1S(=O)(=O)O,scaled lipid accumulation score,[1],inactive: 0.034
same,scaled lipid accumulation score,[2],inactive: ≤ 0
CC/C=C\C/C=C\C/C=C\C/C=C\C/C=C\C/C=C\CCC(=O)O[C@H](COCCCCCCCCCCCCCCCC)COP(=O)([O-])OCC[N+](C)(C)C [Docosahexaenoyl PAF C-16],scaled lipid accumulation score,[3],inactive: ≤ 0
O=C(/C=C\n1cnc(-c2cc(C(F)(F)F)cc(C(F)(F)F)c2)n1)N1CC(F)(F)C1,scaled lipid accumulation score,[1],inactive: ≤ -0.009
same,scaled lipid accumulation score,[2],inactive: 0.294
CC(C)OC(=O)C1=CN(C(=O)c2ccc(F)c(F)c2)CC(C)(C)c2c1[nH]c1ccccc21,scaled lipid accumulation score,[1],inactive: ≤ 0
same,scaled lipid accumulation score,[2],inactive: 0.301
COC(=O)[C@@H]1CC2=CC(=O)CC[C@]2(C)[C@@]23O[C@@H]2C[C@@]2(C)[C@@H](CC[C@@]24CCC(=O)O4)[C@H]13 [Eplerenone],scaled lipid accumulation score,[2],inactive: ≤ -0.001
O=C(O)CCC/C=C\C[C@H]1C(=O)C=C[C@@H]1/C=C/[C@@H](O)CCc1ccccc1 [17-phenyl trinor Prostaglandin A2],scaled lipid accumulation score,[3],inactive: ≤ 0
CC[C@H](CO)Nc1nc(NCc2ccccc2)c2ncn(C(C)C)c2n1 [Roscovitine],scaled lipid accumulation score,[1],inactive: ≤ 0
same,scaled lipid accumulation score,[2],inactive: 0.748
"CC[C@H](CO)Nc1nc(NCc2ccccc2)c2ncn(C(C)C)c2n1 [R-roscovitine, CYC202, Seliciclib]",scaled lipid accumulation score,[4],inactive: 0.025
same,scaled lipid accumulation score,[5],inactive: ≤ 0
same,scaled lipid accumulation score,[6],inactive: 0.08
same,scaled lipid accumulation score,[2],inactive: 0.499
Cc1ccc(NC(=O)c2cccc(C(C)(C)C#N)c2)cc1Nc1ccc2ncn(C)c(=O)c2c1,scaled lipid accumulation score,[4],inactive: ≤ 0
same,scaled lipid accumulation score,[5],inactive: ≤ 0
same,scaled lipid accumulation score,[6],inactive: ≤ 0
same,scaled lipid accumulation score,[1],inactive: 0.029
same,scaled lipid accumulation score,[2],inactive: ≤ 0
CC(C)(C)OC(=O)N1CCC(OCc2nc(-c3ccncc3)no2)CC1,scaled lipid accumulation score,[3],inactive: 0.013
CCS(=O)(=O)N1CCC[C@@H]2CN3CCc4cc(OC)ccc4[C@@H]3C[C@@H]21,scaled lipid accumulation score,[2],inactive: ≤ 0
O=C(O)c1ccccc1C(=O)Nc1ccc(S(=O)(=O)Nc2nccs2)cc1 [Phthalylsulfathiazole],scaled lipid accumulation score,,inactive: ≤ 0
same,scaled lipid accumulation score,library stock concentration: 5 mM,inactive: ≤ 0
same,scaled lipid accumulation score,[2],inactive: ≤ 0
CC[C@@H](C)Nc1cc(C(=O)N[C@H]2C[C@H]3CC[C@@H](C2)N3c2ccc(C(=O)C3CC3)cn2)c(C)cc1C(N)=O,scaled lipid accumulation score,[1],inactive: 0.762
CC(C)[C@H](NC(=O)CNC(=O)OC(C)(C)C)C(=O)N[C@H](C=O)C(C)C,scaled lipid accumulation score,library stock concentration: 14 mM,inactive: 0.022
C[N+](C)(C)CC(=O)O [Betaine hydrochloride],scaled lipid accumulation score,[2],inactive: 0.222 and inactive: 0.014
same,scaled lipid accumulation score,library stock concentration: 13 mM,inactive: ≤ 0
Cc1cc(C)c(Nc2ccnc(Nc3ccc(C#N)cc3)n2)c(C)c1 [Dapivirine (TMC120)],scaled lipid accumulation score,[2],active: 1.08
CN(C)CCOc1cc(-c2cn[nH]c2)ccc1NC(=O)C1COc2ccccc2O1 (configuration not stated),scaled lipid accumulation score,[2],active: 1.08
CC(C)OC(=O)OCOP(=O)(CO[C@H](C)Cn1cnc2c(N)ncnc21)OCOC(=O)OC(C)C [Tenofovir Disoproxil Fumarate],scaled lipid accumulation score,[1],inactive: ≤ 0
same,scaled lipid accumulation score,[2],inactive: ≤ 0
Cl.O=C(NCCCCN1CCN(c2cccc(Cl)c2Cl)CC1)c1ccc2c(c1)Cc1ccccc1-2,scaled lipid accumulation score,[2],active: 0.884
